Results: ChEMBL document CHEMBL1156177, “Conjugates of plumbagin and phenyl-2-amino-1-thioglucoside inhibit MshB, a deacetylase involved in the biosynthesis of mycothiol” (Bioorg Med Chem, 2010)

Test system: CC(=O)N[C@@H](CSSc1ccc2cc(O)ccc2c1)C(=O)NC1[C@@H](OC2[C@H](O)[C@H](O)C(O)[C@@H](O)[C@H]2O)O[C@H](CO)[C@@H](O)[C@@H]1O
Test: Activity at Mycobacterium tuberculosis Mtr by spectrophotometry

Mycothione reductase (Mycobacterium tuberculosis) (sequence not shown)
Km: 23 µM
